Test results from the supplement of paper PMC4604168 (melanoma cell lines).
The list shows a part of the results. Single values are uncertain, as repeats are few or missing.

Assays:
Assay in all cases: cell count relative to DMSO control; melanoma cells; higher = more viable cells
Details in all cases: library dose: standard library concentration; 72 h
SkMel28 = tested on: SkMel28
SkMel2 = tested on: SkMel2
SkMel30 = tested on: SkMel30
SkMel5 = tested on: SkMel5
UACC257 = tested on: UACC257
UACC62 = tested on: UACC62
WM115 = tested on: WM115
WM1716 = tested on: WM1716
WM1745 = tested on: WM1745
WM3526 = tested on: WM3526
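Also: cells treated in 1,536-well plates, then fixed and DAPI-stained, with nuclei counted from automated high-throughput microscope images.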

Row | Compound | cell count (SkMel28) [%] | cell count (SkMel2) [%] | cell count (SkMel30) [%] | cell count (SkMel5) [%] | cell count (UACC257) [%] | cell count (UACC62) [%] | cell count (WM115) [%] | cell count (WM1716) [%] | cell count (WM1745) [%] | cell count (WM3526) [%]
1 | CC1(C)CCC(c2ccc(Cl)cc2)=C(CN2CCN(c3ccc(C(=O)NS(=O)(=O)c4ccc(N[C@H](CCN5CCOCC5)CSc5ccccc5)c(S(=O)(=O)C(F)(F)F)c4)cc3)CC2)C1 + CN(c1ncccc1CNc1nc(Nc2ccc3c(c2)CC(=O)N3)ncc1C(F)(F)F)S(C)(=O)=O [PF562271] (first compound 2 µM, partner dose 0.4 µM) | 67.9 | 55.6 | 71.7 | 76.4 | 40.2 | 63.2 | 66.8 | 54.2 | 5.05 | 70.7
2 | Cc1ccc(Nc2nccc(N(C)c3ccc4c(C)n(C)nc4c3)n2)cc1S(N)(=O)=O [Pazopanib] + Cc1nc(Nc2ncc(C(=O)Nc3c(C)cccc3Cl)s2)cc(N2CCN(CCO)CC2)n1 [dasatanib] (first compound 2 µM, partner dose 0.02 µM) | 69.8 | 108 | 86.6 | 48.1 | 68.8 | 49 | 59.3 | 60.4 | 35.5 | 83.6
3 | Cc1ccc(Nc2nccc(N(C)c3ccc4c(C)n(C)nc4c3)n2)cc1S(N)(=O)=O [Pazopanib] + CN(C)S(=O)(=O)c1ccc2c(c1)/C(=C/c1cc3c([nH]1)CCCC3)C(=O)N2 [SU6656] (first compound 2 µM, partner dose 2 µM) | 58.5 | 98.5 | 77 | 74.5 | 70.4 | 63.4 | 56.3 | 66.2 | 50.4 | 60.6
4 | CC1(C)CCC(c2ccc(Cl)cc2)=C(CN2CCN(c3ccc(C(=O)NS(=O)(=O)c4ccc(N[C@H](CCN5CCOCC5)CSc5ccccc5)c(S(=O)(=O)C(F)(F)F)c4)cc3)CC2)C1 + O=C(O)c1ccc2c(c1)nc(Nc1cccc(Cl)c1)c1ccncc12 [CX4945] (first compound 2 µM, partner dose 2 µM) | 34.2 | 53.8 | 29.8 | 57.7 | 36.1 | 62.6 | 32.4 | 56.2 | 4.04 | 53.7
5 | Cc1ccc(Nc2nccc(N(C)c3ccc4c(C)n(C)nc4c3)n2)cc1S(N)(=O)=O [Pazopanib] + C[C@]1(c2nc3c(C(N)=O)cccc3[nH]2)CCCN1 [Veliparib] (first compound 2 µM, partner dose 7 µM) | 52.3 | 72.3 | 68.9 | 54.4 | 80.7 | 54.9 | 66.7 | 76.4 | 79.8 | 67.9
6 | CC1(C)CCC(c2ccc(Cl)cc2)=C(CN2CCN(c3ccc(C(=O)NS(=O)(=O)c4ccc(N[C@H](CCN5CCOCC5)CSc5ccccc5)c(S(=O)(=O)C(F)(F)F)c4)cc3)CC2)C1 + Cc1cc(N2CCOCC2)cc2[nH]c(-c3c(NC[C@@H](O)c4cccc(Cl)c4)cc[nH]c3=O)nc12 [BMS536924] (first compound 2 µM, partner dose 1 µM) | 79.6 | 60.8 | 58.1 | 75.5 | 55.9 | 67.8 | 63.2 | 62.9 | 9.65 | 70
7 | CC1(C)CCC(c2ccc(Cl)cc2)=C(CN2CCN(c3ccc(C(=O)NS(=O)(=O)c4ccc(N[C@H](CCN5CCOCC5)CSc5ccccc5)c(S(=O)(=O)C(F)(F)F)c4)cc3)CC2)C1 + CC1(C)NC(=O)N(c2ccc([N+](=O)[O-])c(C(F)(F)F)c2)C1=O [nilutamide] (first compound 2 µM, partner dose 5 µM) | 59.7 | 73.4 | 62.1 | 72.4 | 44 | 82.6 | 74.8 | 50.7 | 3.4 | 72.5
8 | O=C(/C=C/c1cccnc1)NCCCCC1CCN(C(=O)c2ccccc2)CC1 + C[C@@H](N)c1ccc(C(=O)Nc2ccnc3[nH]ccc23)cc1 [RKI983] (first compound 0.05 µM, partner dose 2 µM) | 89 | 15.9 | 76.4 | 48 | 53.7 | 88.6 | 85.4 | 13 | 40.2 | 99.7
9 | O=C(/C=C/c1cccnc1)NCCCCC1CCN(C(=O)c2ccccc2)CC1 + COc1ccc(C2=N[C@@H](c3ccc(Cl)cc3)[C@@H](c3ccc(Cl)cc3)N2C(=O)N2CCNC(=O)C2)c(OC(C)C)c1 [Nutlin-3] (first compound 0.05 µM, partner dose 0.5 µM) | 57.7 | 20.4 | 80.6 | 73.1 | 104 | 57.8 | 63.7 | 62.1 | 106 | 106
10 | CC1(C)CCC(c2ccc(Cl)cc2)=C(CN2CCN(c3ccc(C(=O)NS(=O)(=O)c4ccc(N[C@H](CCN5CCOCC5)CSc5ccccc5)c(S(=O)(=O)C(F)(F)F)c4)cc3)CC2)C1 + COc1ccc(Cl)c(Nc2nc3ccccc3nc2NS(=O)(=O)c2cccc(NC(=O)C(C)(C)N)c2)c1 [XL147] (first compound 2 µM, partner dose 4 µM) | 64.2 | 90.9 | 63.8 | 87.5 | 38.7 | 61.7 | 86.2 | 52.6 | 4.45 | 75.9
11 | Cc1ccc(Nc2nccc(N(C)c3ccc4c(C)n(C)nc4c3)n2)cc1S(N)(=O)=O [Pazopanib] + CCCCCCCCc1ccc(CCC(N)(CO)CO)cc1 [fingolimod] (first compound 2 µM, partner dose 10 µM) | 2.31 | 0.304 | 16.8 | 63.8 | 76.4 | 13.9 | 18.6 | 46.5 | 3.18 | 46.4
12 | Cc1ccc(Nc2nccc(N(C)c3ccc4c(C)n(C)nc4c3)n2)cc1S(N)(=O)=O [Pazopanib] + Nc1ncn([C@H]2C[C@H](O)[C@@H](CO)O2)c(=O)n1 [decitabine] (first compound 2 µM, partner dose 0.5 µM) | 102 | 101 | 94.7 | 84 | 86.6 | 62.4 | 77.5 | 67.7 | 94.4 | 84
13 | Cc1ccc(Nc2nccc(N(C)c3ccc4c(C)n(C)nc4c3)n2)cc1S(N)(=O)=O [Pazopanib] + C=CCNC1=C2C[C@@H](C)C[C@H](OC)[C@H](O)[C@@H](C)/C=C(\C)[C@H](OC(N)=O)[C@@H](OC)/C=C\C=C(/C)C(=O)NC(=CC1=O)C2=O [Tanespimycin] (first compound 2 µM, partner dose 0.01 µM) | 70.1 | 90.4 | 75.5 | 58.7 | 85 | 43.9 | 27.1 | 77.6 | 40 | 72.6
14 | Cc1ccc(Nc2nccc(N(C)c3ccc4c(C)n(C)nc4c3)n2)cc1S(N)(=O)=O [Pazopanib] + NC1(c2ccc(-c3nc4ccn5c(=O)[nH]nc5c4cc3-c3ccccc3)cc2)CCC1 [MK2206] (first compound 2 µM, partner dose 2 µM) | 62.8 | 94.4 | 81.9 | 70.3 | 90.9 | 74.9 | 89.3 | 99.6 | 76.3 | 83.8
15 | Cc1ccc(Nc2nccc(N(C)c3ccc4c(C)n(C)nc4c3)n2)cc1S(N)(=O)=O [Pazopanib] + Nc1nc(F)nc2c1ncn2[C@@H]1O[C@H](CO)[C@@H](O)[C@@H]1O [fludarabine] (first compound 2 µM, partner dose 1 µM) | 2.55 | 1.41 | 28.2 | 27.9 | 39.5 | 57.7 | 90.6 | 71.8 | 79.9 | 26.8
16 | O=C(/C=C/c1cccnc1)NCCCCC1CCN(C(=O)c2ccccc2)CC1 + CC(C)(C)c1cnc(CSc2cnc(NC(=O)C3CCNCC3)s2)o1 [SNS-032] (first compound 0.05 µM, partner dose 0.05 µM) | 74.6 | 24.4 | 83.3 | 80.1 | 99.3 | 69.7 | 70.2 | 82.4 | 79.8 | 92.8
17 | O=C(/C=C/c1cccnc1)NCCCCC1CCN(C(=O)c2ccccc2)CC1 + Cn1c(Nc2ccc(C(F)(F)F)cc2)nc2cc(Oc3ccnc(-c4ncc(C(F)(F)F)[nH]4)c3)ccc21 [CHIR265] (first compound 0.05 µM, partner dose 0.4 µM) | 35.2 | 19.8 | 59.2 | 36.9 | 73.6 | 49.6 | 38.5 | 54.6 | 60.5 | 49.1
18 | CC1(C)CCC(c2ccc(Cl)cc2)=C(CN2CCN(c3ccc(C(=O)NS(=O)(=O)c4ccc(N[C@H](CCN5CCOCC5)CSc5ccccc5)c(S(=O)(=O)C(F)(F)F)c4)cc3)CC2)C1 + C[C@@H](Oc1cc(-c2cnn(C3CCNCC3)c2)cnc1N)c1c(Cl)ccc(F)c1Cl [Crizotinib] (first compound 2 µM, partner dose 1 µM) | 58.9 | 68.7 | 66.6 | 86.3 | 29.5 | 71.1 | 44.8 | 32.9 | 2.38 | 77.2
19 | Cc1ccc(Nc2nccc(N(C)c3ccc4c(C)n(C)nc4c3)n2)cc1S(N)(=O)=O [Pazopanib] + CO[C@H]1C[C@@H]2CC[C@@H](C)[C@@](O)(O2)C(=O)C(=O)N2CCCC[C@H]2C(=O)O[C@H]([C@H](C)C[C@@H]2CC[C@@H](OCCO)[C@H](OC)C2)CC(=O)[C@H](C)/C=C(\C)[C@@H](O)[C@@H](OC)C(=O)[C@H](C)C[C@H](C)/C=C/C=C/C=C/1C [everolimus] (first compound 2 µM, partner dose 0.1 µM) | 39.7 | 66.1 | 67.5 | 71.2 | 102 | 61.8 | 62.7 | 70.7 | 86.6 | 64
20 | CC1(C)CCC(c2ccc(Cl)cc2)=C(CN2CCN(c3ccc(C(=O)NS(=O)(=O)c4ccc(N[C@H](CCN5CCOCC5)CSc5ccccc5)c(S(=O)(=O)C(F)(F)F)c4)cc3)CC2)C1 + CCN(CC)CCNC(=O)c1c(C)[nH]c(/C=C2\C(=O)Nc3ccc(F)cc32)c1C [sunitinib] (first compound 2 µM, partner dose 2 µM) | 19.7 | 28.9 | 12 | 32.7 | 33.8 | 19.1 | 17 | 71.9 | 4.1 | 42.8
